Results are given in words; binding and its absence hold for the method and conditions named. Some entries that bind do so weakly or less than the wild type.
T1: full-length HspB5 (αB-crystallin) (human) (UniProt P02511)
T1 sequence: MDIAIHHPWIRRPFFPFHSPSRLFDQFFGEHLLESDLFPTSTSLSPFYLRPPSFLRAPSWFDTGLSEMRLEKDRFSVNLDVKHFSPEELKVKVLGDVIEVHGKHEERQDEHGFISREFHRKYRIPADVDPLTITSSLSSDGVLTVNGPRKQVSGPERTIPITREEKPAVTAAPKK

Sequences of proteins named here, by UniProt entry; tags and fusion partners are left off. A change or cut given only in a name is not applied to a line headed by its entry.
UniProt P04792: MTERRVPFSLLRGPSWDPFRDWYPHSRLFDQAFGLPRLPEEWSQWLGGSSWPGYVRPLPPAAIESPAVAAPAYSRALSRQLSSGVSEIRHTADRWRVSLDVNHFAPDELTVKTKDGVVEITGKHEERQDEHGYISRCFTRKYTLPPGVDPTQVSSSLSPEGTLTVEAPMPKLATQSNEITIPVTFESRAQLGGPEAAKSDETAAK
UniProt Q9UBY9: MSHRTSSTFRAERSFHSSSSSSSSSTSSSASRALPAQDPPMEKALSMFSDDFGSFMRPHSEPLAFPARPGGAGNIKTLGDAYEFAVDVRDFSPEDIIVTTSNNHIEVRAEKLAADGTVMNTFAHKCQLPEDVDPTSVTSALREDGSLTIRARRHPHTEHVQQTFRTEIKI

T2: full-length HspB8 (human) (UniProt Q9UJY1)
T2 sequence: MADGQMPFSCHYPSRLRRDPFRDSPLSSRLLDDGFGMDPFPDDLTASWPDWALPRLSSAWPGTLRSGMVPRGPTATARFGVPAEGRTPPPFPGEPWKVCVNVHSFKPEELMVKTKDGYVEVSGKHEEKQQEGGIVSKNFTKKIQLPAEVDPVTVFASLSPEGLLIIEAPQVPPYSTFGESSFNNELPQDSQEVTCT

T3: full-length HspB6 (human) (UniProt O14558)
T3 sequence: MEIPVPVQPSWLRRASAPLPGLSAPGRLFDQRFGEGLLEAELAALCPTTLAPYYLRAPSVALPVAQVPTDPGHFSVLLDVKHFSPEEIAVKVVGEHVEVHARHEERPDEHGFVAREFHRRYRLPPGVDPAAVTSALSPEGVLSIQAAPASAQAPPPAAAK


Tests used:
[1] = molecular target: T1, full-length HspB5 (αB-crystallin) (human); experiment: SEC; full-length sHsp (~19–20 μM per monomer) mixed with ACD (38–110 μM per monomer) in buffer B, 30 min at 42 °C; Superdex 200 Increase column in 50 mM phosphate pH 7.4, 150 mM NaCl, 2 mM DTT; fractions analysed by SDS–PAGE; both purified
[2] = molecular target: full-length HspB1 (human) (UniProt P04792); experiment: as above
[3] = molecular target: T2, full-length HspB8 (human); experiment: native gel or EMSA; clear native PAGE, 12.5% gel, 80 mM glycine–Tris pH 8.6; sHsp 5–6 μM per monomer mixed with ACD 20–24 μM per monomer, 30 min at 25 °C in buffer B; Western blot with anti-HspB6 for the complexes of HspB6; both purified
[4] = molecular target: full-length HspB7 (human) (UniProt Q9UBY9); experiment: as above
[5] = molecular target: T3, full-length HspB6 (human); experiment: as above
[6] = molecular target: α-crystallin domain of HspB8 (B8ACD) (human) (UniProt Q9UJY1); experiment: SEC; Superdex 75 10/300 GL, 50 mM phosphate pH 7.4, 150 mM NaCl, 2 mM DTT; 25 μL samples of 16–150 μg (25–600 μM per monomer); apparent dissociation constant, dimer to monomers, from a hyperbolic fit of elution volume against the concentration loaded; both purified
[7] = molecular target: 3D mutant of HspB1 (S15D, S78D, S82D) (human) (UniProt P04792); experiment: condition: full-length ~19–20 μM, ACD 38–110 μM per monomer; SEC; full-length sHsp (~19–20 μM per monomer) mixed with ACD (38–110 μM per monomer) in buffer B, 30 min at 42 °C; Superdex 200 Increase column in 50 mM phosphate pH 7.4, 150 mM NaCl, 2 mM DTT; fractions analysed by SDS–PAGE; both …
[8] = molecular target: T1, full-length HspB5 (αB-crystallin) (human); experiment: as above
[9] = molecular target: full-length HspB1 (human) (UniProt P04792); experiment: as above
[10] = molecular target: α-crystallin domain of HspB8 (B8ACD) (human) (UniProt Q9UJY1); experiment: SEC-MALS; Superdex 200 Increase 10/300, 20 mM Tris–HCl pH 7.5, 150 mM NaCl, 3 mM β-mercaptoethanol; 2 mg/mL, 90 µL loaded; both purified

binding [1]	binding [2]	binding [7]	binding [8]	binding [9]	binding [10]	Binder	binding [3]	binding [4]	binding [5]	binding [6]
binds weakly	binds weakly	–	–	–	–	α-crystallin domain of HspB5 (B5ACD) (domain or fragment, UniProt P02511 64-150) GLSEMRLEKDRFSVNLDVKHFSPEELKVKVLGDVIEVHGKHEERQDEHGFISREFHRKYRIPADVDPLTITSSLSSDGVLTVNGPRK	–	–	–	–
binds weakly	binds weakly	–	–	–	–	α-crystallin domain of HspB6 (B6ACD) (domain or fragment, UniProt O14558 64-149) VAQVPTDPGHFSVLLDVKHFSPEEIAVKVVGEHVEVHARHEERPDEHGFVAREFHRRYRLPPGVDPAAVTSALSPEGVLSIQAAPA	no binding (tested: sHsp 5–6 μM, ACD 20–24 μM per monomer)	no binding (tested: sHsp 5–6 μM, ACD 20–24 μM per monomer)	–	–
–	–	no binding	no binding	no binding	no binding (tested: 2 mg/mL)	α-crystallin domain of HspB8 (B8ACD) (domain or fragment, UniProt Q9UJY1 85-171) GRTPPPFPGEPWKVCVNVHSFKPEELMVKTKDGYVEVSGKHEEKQQEGGIVSKNFTKKIQLPAEVDPVTVFASLSPEGLLIIEAPQV	–	no binding (tested: sHsp 5–6 μM, ACD 20–24 μM per monomer)	no binding (tested: sHsp 5–6 μM, ACD 20–24 μM per monomer)	no binding (tested: 25–600 μM per monomer)

Source: PMC9860685
